From ChEMBL document CHEMBL1201862, “PubChem BioAssay data set” (2004)

Test system: NCI-H322M
Experiment: DTP human tumour cell line panel, 48 h

SMILES | GI50
Cc1nc2ccccc2nc1NS(=O)(=O)c1ccc(N)cc1 | inactive: > 100 µM
O=C(O)c1cc2ccc3ccccc3c2oc1=O | inactive: > 100 µM
O=C(O)/C=C\C(=O)Nc1ccccn1 | inactive: > 100 µM
Nc1nc(O)c2c(n1)NCN(c1ccc(S(N)(=O)=O)cc1)C2 | inactive: > 100 µM
C[C@H](CCC1=NCCN1)[C@H]1CC[C@H]2[C@@H]3CC[C@@H]4C[C@H](O)CC[C@]4(C)[C@H]3CC[C@]12C | inactive: 9.42 µM
COc1ccc2c3c1C(=O)CCC3CO2 (centres undefined) | inactive: > 100 µM
O=C=C=P(c1ccccc1)(c1ccccc1)c1ccccc1 | inactive: > 100 µM
CCOC(=O)/C1=C(\C)N(Cc2ccccc2)C(=O)c2ccccc2C(=O)c2c(O)ccc(O)c21 | inactive: 90.6 µM
COc1ccc2cc1Oc1ccc(cc1)CC1c3cc4c(cc3CCN1C)Oc1c(OC)cc3c(c1O4)C(C2)N(C)CC3 (centres undefined) | inactive: 4.17 µM
CC[C@@H](C)[C@H]([C@H](CC(=O)N1CCC[C@@H]1[C@@H](OC)[C@H](C)C(=O)N[C@H](Cc1ccccc1)c1nccs1)OC)N(C)C(=O)[C@H](NC(=O)[C@@H](C(C)C)N(C)C)C(C)C | active: 0.000106 µM
O=C1C2C3C4C1C1C2[C@H](OCc2ccccc2)C3C1[C@H]4OCc1ccccc1 (some centres undefined) | inactive: 33.6 µM
COc1ccccc1-c1nc[nH]c1-c1ccccc1OC | inactive: 29.9 µM
CC(=O)OC1CC2(C)OC(Cc3ccccc32)O1 (centres undefined) | inactive: > 100 µM
CCCCCCCCCCCC(=O)Oc1c(Cl)cc(Cl)c(OC(=O)C(=O)Oc2c(Cl)cc(Cl)c(OC(=O)CCCCCCCCCCC)c2Cl)c1Cl | inactive: > 100 µM
Cc1ccc(-n2cc(-c3ccc(Cl)cc3)c(C#N)c2N)cc1 | inactive: 16.6 µM
C/C(=N\Nc1nc2ccccc2[nH]1)c1cc2ccccc2cn1 | active: 0.0611 µM
Cc1[nH]c2ccccc2c1C(=O)CC1(O)C(=O)Nc2ccccc21 (centres undefined) | inactive: > 100 µM
O=[N+]([O-])C(/C(Cl)=C(/Cl)N1CCCCC1)=C1\NCCO1 | inactive: > 100 µM
O=C(O)CNS(=O)(=O)c1ccc(NC(=O)c2ccccc2[N+](=O)[O-])cc1 | inactive: > 100 µM
CNC(=O)NCCN1N=C(C)/C(=C\c2ccccc2)CC1=O | inactive: > 100 µM
O=C1CC(=O)c2c(N3CCCC3)sc(N3CCCC3)c21 | inactive: > 100 µM
O=C1C2=C(c3ccccc31)C(c1ccc([N+](=O)[O-])cc1)NC(S)=N2 (centres undefined) | inactive: > 100 µM
CC(=O)C1CC2(c3ccccc3)C(=O)c3ccccc3N2O1 (centres undefined) | inactive: > 100 µM

SMILES | GI50
Cc1nc2ccc(Cl)cc2c(Cl)c1CCCl | inactive: > 100 µM
C=C1C(=O)CC2C1CC(=O)/C(C)=C/CCC(C)(O)C2O (centres undefined) | inactive: 47.1 µM
N=C1C(=N)c2ccccc2-c2ccccc21 | inactive: 1.75 µM
C=C=C(Sc1ccccc1)C(C)(C)O | inactive: > 100 µM
Cn1cc(-c2ccc3c4ccccc4n(C)c3c2)c2ccccc21 | inactive: > 100 µM
CC1=NN(c2nc(N)nc(CSCc3nc(N)nc(N(C)C)n3)n2)C(C)(C)C1 | inactive: > 100 µM
Clc1ccc(SCCSCCCCCCCCCCSCCSc2ccc(Cl)cc2)cc1 | inactive: > 100 µM
Cc1cc(C)c(/C=C(\C(=C/c2c(C)cc(C)cc2C)[N+](=O)[O-])[N+](=O)[O-])c(C)c1 | inactive: > 100 µM
O=C(Nc1nnc(-c2ccccc2)o1)C(SC(=S)N1CCOCC1)c1ccccc1 (centres undefined) | inactive: 11.8 µM
CC(=O)Oc1c2c(c3n(c1=O)CCCC3)C(=O)N(c1ccccc1)C2=O | inactive: > 100 µM
NC1CC2C3CCC2C1C3=O (centres undefined) | inactive: > 100 µM
CCCCOC(=O)NC(Nc1ccc(S(=O)(=O)Nc2ncccn2)cc1)(C(F)(F)F)C(F)(F)F | inactive: > 100 µM
COc1cc(S(=O)(=O)Nc2nc(-c3ccc(N4C(=O)/C(=C\c5cccs5)N=C4c4ccccc4)cc3)cs2)ccc1Cl | inactive: > 100 µM
CO/C(N)=C(C#N)/N=C/c1ccc2ccccc2c1 | inactive: 35.5 µM
NNC(=S)N/N=C/C(=C/Nc1ccccc1)[N+](=O)[O-] | inactive: > 100 µM
CC[C@@H]1CC[C@@H]2[C@H](CC[C@]3(C)[C@@H](OC(C)=O)CC[C@@H]23)[C@H]1C(=O)OC | inactive: 34.2 µM
OCC(O)C(OC1OC(CO)C(O)C(O)C1O)c1nn(-c2ccc(Cl)cc2)c2nc3cc(Cl)c(Cl)cc3nc12 (centres undefined) | inactive: 91 µM
CCSc1nc2n(c(=S)n1)CCN2C | inactive: 22.8 µM
Cn1c(=O)[nH]c2nccnc2c1=O | inactive: > 10 µM
O=C(/C=C/c1ccccc1O)c1ccccc1Cl | inactive: 56.1 µM
CC#C[P+](c1ccccc1)(c1ccccc1)c1ccccc1 | inactive: 11 µM
COC(=O)c1c(C)c2c(c(C)c1C(=O)OC)-c1c(C)ccc3ccc(C)c-2c13 | inactive: 67 µM
COc1cc(/C=C/C2=NN(c3cccc(S(=O)(=O)O)c3)C3(C2)C(Cl)C(=O)N3c2nc3ccccc3s2)ccc1O (centres undefined) | inactive: 82.4 µM

SMILES | GI50
N#Cc1c(N)c(C(=O)O)nn(-c2cccc(C(F)(F)F)c2)c1=O | inactive: > 100 µM
CC[C@@]1(C[C@H]2C[C@@]3(C(=O)OC)c4[nH]c5ccccc5c4CCN3C2=S)COC2(CCCCC2)O1 | inactive: > 100 µM
O=NN1C(c2ccccc2)C2CCCC(C2=O)C1c1ccccc1 (centres undefined) | inactive: 45.9 µM
CCOC(=O)C(C)N1C(=O)c2ccccc2S1(=O)=O (centres undefined) | inactive: > 100 µM
CCCS(=O)OC1C(C2COC(C)(C)O2)OC2OC(C)(C)OC21 (centres undefined) | inactive: 16.4 µM
N/N=C(/Cc1nc2ccc(C(=O)c3ccccc3)cc2nc1O)C(=O)Nc1ccc([N+](=O)[O-])cc1[N+](=O)[O-] | inactive: > 100 µM
CSc1nc2[nH]c(=O)c(C)nc2c(=O)[nH]1 | inactive: > 100 µM
COC(=O)C(Cc1ccccc1I)C1=CCC2(CC1)OCCO2 (centres undefined) | inactive: 37.2 µM
C/C(=N\NC(=S)N1CCCCC1)c1nc2cccnc2[nH]1 | inactive: 15.6 µM
CC(=O)C(=NNc1ccc(-n2c(C)nc3ccccc3c2=O)cc1)C(C)=O | inactive: > 100 µM
CNC(=O)N1CCN(C(=O)NC)CCN(C(=O)NC)CC1 | inactive: > 100 µM
O=c1[nH]nc(-c2ccccc2)c(-c2ccccc2)c1-n1nc(-c2ccccc2)c2ccccc2c1=O | inactive: > 100 µM
CCOC(=O)C1C(=O)CC(O)(c2ccccc2)C(C(=O)OCC)C1c1ccc(N(C)C)cc1 (centres undefined) | inactive: 67.1 µM
CN(C)CCCNC(=O)c1cccc2nc3ccccc3nc12 | inactive: 10.6 µM
O=c1cc(N2CCCC2)[nH]c(=O)n1-c1cccc(Cl)c1 | inactive: > 100 µM
COC(=O)/C=C1\C(CO[Si](C)(C)C(C)(C)C)OC(n2cc(C)c(=O)n(C)c2=O)C1O[Si](C)(C)C(C)(C)C (centres undefined) | inactive: > 100 µM
N#C/C(=C1\SC(/N=N/c2ccccc2)C(=O)N1c1ccccc1)c1nc2ccccc2[nH]1 (centres undefined) | inactive: > 100 µM
Cn1ccnc1CCc1ccc(F)cc1F | inactive: > 100 µM
O=c1c2cc3c(cc2[nH]c2ncccc12)OCO3 | inactive: > 10 µM
C[Si](C)(C)c1ccc(-c2sc(-c3ccc([Si](C)(C)C)s3)c3c2C[Si]2(C3)Cc3c(-c4ccc([Si](C)(C)C)s4)sc(-c4ccc([Si](C)(C)C)s4)c3C2)s1 | inactive: > 100 µM
CC(C)C1=C2CCC3(C)C(CCC4C5C6OCC5(CCC6(C)C)CCC43C)C2(C)CC1 (centres undefined) | inactive: 38.8 µM
CC(=O)NC1C(OC(C)C(=O)NC(C(=O)NC(CCC(=O)NCCCNC2c3ccccc3Nc3cccc([N+](=O)[O-])c32)C(N)=O)C(C)C)C(O)C(CO)OC1(C)OCc1ccccc1 (centres undefined) | active: 1.11 µM
COc1ccc(CCN2CCc3c(C)c(C#N)c4nc5ccccc5n4c32)cc1OC | inactive: 45.7 µM

SMILES | GI50
C[C@]12CCC(=O)C=C1CC[C@@H]1[C@@H]2CC[C@]2(C)C(=O)/C(=C/c3ccc([N+](=O)[O-])cc3)C[C@@H]12 | inactive: > 100 µM
Oc1ccc(Cn2c(-c3ccc(O)c(O)c3)nc3ccccc32)cc1O | inactive: 15.3 µM
COC(=O)C(Cc1ccc2c(c1)CCCC2)Cc1cc2c(cc1C(O)OC)CCC2 (centres undefined) | inactive: > 100 µM
COC(=O)NC(=O)c1cn(C2CCCCC2)c(=O)[nH]c1=O | inactive: > 100 µM
CCOC(=O)/C(=C\c1ccccc1)C(=O)O | inactive: > 100 µM
COC(=O)/C(C)=C(/CCC1(C)OCCO1)O[Si](C)(C)C | inactive: 33.2 µM
COC(CN(C)C(=S)Nc1cccc2ccccc12)OC | inactive: > 10 µM
C[C@H]1[C@H](N2CCCC2)O[Si](C(C)(C)C)(C(C)(C)C)[C@@H]1C | inactive: > 100 µM
COc1ccc(-c2cc(-c3ccccc3)nc3c2CC(=O)Nc2ccccc2-3)cc1OC | inactive: > 100 µM
O=C(O)/C=c1/c2ccccc2n2nc3ccccc3c12 | inactive: 18.7 µM
CCCCCCCCOC1C(O)C(O)C(O)C(O)C12CO2 (centres undefined) | inactive: > 100 µM
O=S(=O)(O)c1ccc(/N=N/c2c(O)ccc3ccccc23)cc1 | inactive: > 100 µM
O=[N+]([O-])c1cccc(/N=N/c2c(O)c(S(=O)(=O)O)cc3cc(S(=O)(=O)O)ccc23)c1 | inactive: > 100 µM
Nc1ncnc2c1ncn2CCCC(c1ccccc1)P(=O)(O)O (centres undefined) | inactive: > 100 µM
CC(NNC(=O)c1cc[n+]([BH2-]C#N)cc1)c1ccccc1 (centres undefined) | inactive: > 100 µM
FC(F)(F)c1ccc2c(c1)nc(-c1ccc(Cl)cc1)n2CC1CCCN2CCCCC12 (centres undefined) | inactive: 12.6 µM
COc1cccc2c1C(=O)c1c(O)c3c(c(O)c1C2=O)C[C@@](O)(C(=O)CO)C[C@@H]3OC1CC(N2CCOCC2C#N)C(O)C(C)O1 (some centres undefined) | active: 9.16e-05 µM
O=C1c2ccc(O)cc2C(=O)c2ccc(O)cc21 | inactive: 42 µM
O=C1CCCN(c2ccccc2)N1 | inactive: > 100 µM
COc1ccc2oc(-c3ccc(OC)c(OC)c3OC)cc(=O)c2c1 | inactive: > 100 µM

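Each compound was tested at five concentrations against cells in 96-well plates for 48 hours. GI50 marks 50% less growth.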 Calls of active or inactive are those of the source. Cut-off read from the data, not from the text of the source: active = GI50 up to about 1.1 µM and inactive = higher.
